The supplement of paper PMC3724861
Some of the results follow.

What follows are sequences tested on T1, Caupolican (Caup) homeodomain DNA-binding domain (assay: PBM E-score (8-mer, recovered from the published 9-mer minima) (E-score (dimensionless, -0.5 to 0.5)); Drosophila protein; higher = stronger relative binding preference, active = 0.31 or more).
T1 sequence: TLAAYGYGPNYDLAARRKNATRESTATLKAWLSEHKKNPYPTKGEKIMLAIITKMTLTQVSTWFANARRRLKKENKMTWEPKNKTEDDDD
Procedure, shortened: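 Caup's homeodomain DNA-binding domain (residues 214-303) was produced by in vitro transcription and translation and applied at 100 nM to custom-designed protein binding microarrays. Each value is an enrichment score giving relative binding preference for a short DNA word; higher means stronger. Published 9-mer scores were the minimum of their two constituent 8-mer scores, and the 8-mer values were recovered from those minima. A cutoff of 0.31 marks candidate binding sequences.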

PBM E-score, active:
ACAAGTAT 0.314
GTTGTCAA 0.339
ATGTAAAT 0.352

PBM E-score, ≥ 0.152:
ACGTATCA

PBM E-score, ≥ -0.0194:
AAGCGCTT

PBM E-score, ≥ -0.217:
GTGGGGGA

PBM E-score, ≥ 0.0656:
AGAGCTAC

PBM E-score, inactive:
GAGAGCTA -0.0608
ATTGGCCA -0.0658
TGGTGCAA 0.0119
GTCCCTTA -0.00469
CCCATGAG -0.138
ATGAATGA 0.158
GGAAAGCC -0.0924
CGGTCTTC -0.0755
TCCGGCGA -0.0988
GACCTCCA -0.182
AACGCGGC -0.13
CCGGACAA 0.144
GGAGTATA 0.0004
GAAGTGGA -0.0889
AAACCAGC -0.0267
GGGAGGAA -0.185
TAGCGGCA -0.0809
AGCTTACA 0.222
CTCGTAGA -0.036
CGATTCCG -0.127
CTGGGTGC -0.161
ACATCATC 0.251
GGCCAATA -0.00113
AAACTATC 0.0932
ACTGTGAT 0.066
CTCTATAA 0.0928
TACTGACA 0.25
CATATAGG 0.0865
ATAAGCAC 0.116
ACCGGCGA -0.156
ATCCTTAA 0.0253
GGAGTCTA -0.0976
TCTCCTCA -0.075
AAGTAAGC 0.0364
CCGAGGTC -0.225
TACGAGTA 0.189
ATATCTCA 0.0962
GAGGCTGA -0.0439
GGCGAGTA -0.0986
GTGACTAA 0.0922
GAGTCCGA -0.00451
GCCTAAGA -0.103
ACCCACGA -0.0778
ATTATTTG 0.206
ACCTTTCG -0.137
CTCCAGCC -0.334
CTCGTCCC -0.0824
CGATTGGC -0.112
ATCACCCG -0.0714
GATATAAC 0.176
CTTCCCAA -0.0612
GTTCTGGA 0.135
AATGTTTC 0.143
ACAGGTAA 0.216
AATGGATG 0.099
AGACTTAC 0.135
ACCACCCA -0.0744
ATGCTCCG -0.146
AATTTGGT 0.0883
AAGAGTGC 0.0487
AATCGCCA -0.0899
AGTGGTAT 0.117
TCCCGAAA -0.0737
TCAAGGAA 0.00378
ACTTGACA 0.169
CTCTTTAC 0.0068
GACGCGGC -0.0783
CAAGCGGC -0.0809
ACTACGGC -0.0896
CGACGTTA 0.0111
AAGCCCCT -0.163
ATATTGAC 0.121
GTAATACA 0.276
ACCATTAG 0.0637
TCACTTAA 0.123
GCACATGA 0.182
CCCGGTCA -0.117
AGAAAACC -0.0816
GGAATACC 0.00893
GCTATTAA 0.0366
ACATAGCT 0.125
ATTCTGTC 0.06
CGCTTTAA -0.0899
AATGTCAC 0.303
GTCTCTGA -0.0754
ACAACCGT 0.227
ACTCGAAA 0.00733
ACGTCCGC -0.0978
TACATCTA 0.298
GAGAGACC -0.184
CGTAACAA 0.243
CGAAGGAG -0.108
ACGAGTCG -0.00173
ATAAACTA 0.219
TTGACCAA 0.0404
ACAACCTA 0.263
ACATGGCC 0.246
AGCGGATG -0.0396
ATACACGG 0.299
GACAACCC 0.12
GACTTTCA -0.0584
AAATGATA 0.146
TGATAGCA 0.0376
CTGTCCGC -0.11
CTAATTAG 0.177
AGGGGCCC -0.238
GCACAAGC -0.0303
CACGATCC 0.104
CCGAAGGA -0.181
CGGCACTC -0.151
ATTCAGAA -0.0733
ACTATTCA 0.0869
CGGTGCAC -0.0731
CTATAGCC -0.199
CCGAGACA 0.0329
CCGTATAC 0.0248
CATGGCCC -0.169
ATCCGGTG 0.0268
TCCGTTAA 0.0513
CTTATGTC 0.224
TAGGTTAA 0.0795
CAACCGCC -0.107
GGGACAAA 0.0576
CTCCAGAC -0.0913
CGGTTCCC -0.195
CAAAGTCC -0.123
GCCTAACC -0.0216
TATGTGAA 0.158
GTTGGCAA 0.0592
AAGGTTCG -0.111
AGATCAAG -0.00423
TAGAGTAA 0.0783
CCAGGTAA 0.0876
CCGTGTCC 0.218
CAGCAGAC -0.0873

PBM E-score, ≥ 0.215:
AACTAATA
